Data reported in patent publication US20200085917A1 (UNIVERSITY OF PITTSBURGH OF THE COMMONWEALTH SYSTEM OF …, published 2020).

Tests used:
Experiment in all cases: GST pull-down, LC-MS/MS
Tpi1_IPI:IPI00467833.6 = Tpi1_IPI:IPI00467833.6 (mouse, UniProt P17751 2-249)
Gnao1_IPI:IPI00115546.4 = Gnao1_IPI:IPI00115546.4 (mouse, UniProt P18872 2-354, limits assumed)
Sfxn1_IPI:IPI00115454.3 = target: T1, Sfxn1_IPI:IPI00115454.3 (mouse, UniProt Q99JR1 2-322)
T1 sequence (looked up): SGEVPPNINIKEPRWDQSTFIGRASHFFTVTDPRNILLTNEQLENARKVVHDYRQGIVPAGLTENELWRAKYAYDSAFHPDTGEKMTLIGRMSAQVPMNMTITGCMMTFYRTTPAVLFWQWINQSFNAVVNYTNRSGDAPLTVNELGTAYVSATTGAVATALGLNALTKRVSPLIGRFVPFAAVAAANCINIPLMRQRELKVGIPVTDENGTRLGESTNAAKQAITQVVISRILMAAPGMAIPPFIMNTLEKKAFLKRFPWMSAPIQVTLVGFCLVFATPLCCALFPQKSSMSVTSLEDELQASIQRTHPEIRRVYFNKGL

Agk_IPI:IPI00113606.2 = target: T2, Agk_IPI:IPI00113606.2 (mouse, UniProt Q9ESW4 1-421)
T2 sequence (looked up): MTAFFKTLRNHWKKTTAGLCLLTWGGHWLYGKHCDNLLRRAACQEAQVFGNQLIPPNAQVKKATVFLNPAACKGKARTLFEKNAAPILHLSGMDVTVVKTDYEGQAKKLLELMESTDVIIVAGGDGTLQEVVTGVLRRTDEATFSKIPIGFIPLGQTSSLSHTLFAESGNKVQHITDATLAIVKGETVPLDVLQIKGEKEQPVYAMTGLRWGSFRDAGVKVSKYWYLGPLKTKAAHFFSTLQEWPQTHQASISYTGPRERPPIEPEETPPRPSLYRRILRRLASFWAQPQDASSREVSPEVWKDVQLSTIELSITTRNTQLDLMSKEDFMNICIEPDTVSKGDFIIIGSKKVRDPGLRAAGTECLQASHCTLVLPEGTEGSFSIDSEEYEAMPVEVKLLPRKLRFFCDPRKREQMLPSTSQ

Asrgl1_IPI:IPI00223875.1 = target: T3, Asrgl1_IPI:IPI00223875.1 (mouse, UniProt Q8C0M9 1-326, limits assumed)
T3 sequence (looked up): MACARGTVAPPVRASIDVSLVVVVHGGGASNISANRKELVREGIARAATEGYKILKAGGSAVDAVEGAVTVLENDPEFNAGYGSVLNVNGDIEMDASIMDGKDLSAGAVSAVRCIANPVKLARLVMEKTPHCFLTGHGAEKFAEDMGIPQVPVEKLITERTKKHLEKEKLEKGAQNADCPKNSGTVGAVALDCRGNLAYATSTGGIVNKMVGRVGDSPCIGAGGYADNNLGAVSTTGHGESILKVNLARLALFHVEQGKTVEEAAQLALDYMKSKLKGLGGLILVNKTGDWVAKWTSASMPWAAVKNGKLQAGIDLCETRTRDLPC

Cyc1_IPI:IPI00132728.2 = target: T4, Cyc1_IPI:IPI00132728.2 (mouse, UniProt Q9D0M3 85-325)
T4 sequence (looked up): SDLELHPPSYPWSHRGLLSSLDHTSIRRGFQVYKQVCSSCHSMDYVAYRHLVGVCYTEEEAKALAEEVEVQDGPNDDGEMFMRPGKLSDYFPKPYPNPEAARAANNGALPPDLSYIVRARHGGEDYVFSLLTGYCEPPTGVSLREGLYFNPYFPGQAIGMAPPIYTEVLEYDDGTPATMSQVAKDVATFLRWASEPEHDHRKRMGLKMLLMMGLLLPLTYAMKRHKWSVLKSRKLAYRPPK

Dsg1c_IPI:IPI00331259.3 = target: T5, Dsg1c_IPI:IPI00331259.3 (mouse, UniProt Q7TSF0 50-911, limits assumed)
T5 sequence (looked up): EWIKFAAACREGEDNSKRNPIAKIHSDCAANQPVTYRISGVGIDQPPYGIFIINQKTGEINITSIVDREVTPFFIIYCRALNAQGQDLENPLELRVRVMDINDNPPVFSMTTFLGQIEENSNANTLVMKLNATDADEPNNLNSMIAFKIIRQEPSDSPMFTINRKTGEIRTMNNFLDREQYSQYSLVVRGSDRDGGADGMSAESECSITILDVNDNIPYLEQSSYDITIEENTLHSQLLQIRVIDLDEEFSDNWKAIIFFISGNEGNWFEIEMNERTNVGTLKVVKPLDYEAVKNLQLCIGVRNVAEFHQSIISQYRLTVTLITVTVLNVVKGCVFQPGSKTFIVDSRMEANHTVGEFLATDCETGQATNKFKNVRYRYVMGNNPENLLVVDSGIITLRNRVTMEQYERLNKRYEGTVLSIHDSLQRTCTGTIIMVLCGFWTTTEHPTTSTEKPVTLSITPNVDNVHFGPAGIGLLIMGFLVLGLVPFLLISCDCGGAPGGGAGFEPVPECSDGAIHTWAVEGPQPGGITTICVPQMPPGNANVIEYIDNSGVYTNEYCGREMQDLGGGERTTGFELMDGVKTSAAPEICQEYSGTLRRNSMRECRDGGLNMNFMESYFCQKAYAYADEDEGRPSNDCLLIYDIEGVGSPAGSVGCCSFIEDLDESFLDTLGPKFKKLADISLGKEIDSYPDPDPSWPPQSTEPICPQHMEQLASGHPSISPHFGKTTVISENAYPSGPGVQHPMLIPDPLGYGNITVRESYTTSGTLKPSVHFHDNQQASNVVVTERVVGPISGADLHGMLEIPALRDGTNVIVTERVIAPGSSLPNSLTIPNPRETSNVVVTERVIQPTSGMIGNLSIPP

Nsf_IPI:IPI00656325.2 = Nsf_IPI:IPI00656325.2 (mouse, UniProt P46460 1-744)
Sequence of Nsf_IPI:IPI00656325.2 (P46460 whole entry): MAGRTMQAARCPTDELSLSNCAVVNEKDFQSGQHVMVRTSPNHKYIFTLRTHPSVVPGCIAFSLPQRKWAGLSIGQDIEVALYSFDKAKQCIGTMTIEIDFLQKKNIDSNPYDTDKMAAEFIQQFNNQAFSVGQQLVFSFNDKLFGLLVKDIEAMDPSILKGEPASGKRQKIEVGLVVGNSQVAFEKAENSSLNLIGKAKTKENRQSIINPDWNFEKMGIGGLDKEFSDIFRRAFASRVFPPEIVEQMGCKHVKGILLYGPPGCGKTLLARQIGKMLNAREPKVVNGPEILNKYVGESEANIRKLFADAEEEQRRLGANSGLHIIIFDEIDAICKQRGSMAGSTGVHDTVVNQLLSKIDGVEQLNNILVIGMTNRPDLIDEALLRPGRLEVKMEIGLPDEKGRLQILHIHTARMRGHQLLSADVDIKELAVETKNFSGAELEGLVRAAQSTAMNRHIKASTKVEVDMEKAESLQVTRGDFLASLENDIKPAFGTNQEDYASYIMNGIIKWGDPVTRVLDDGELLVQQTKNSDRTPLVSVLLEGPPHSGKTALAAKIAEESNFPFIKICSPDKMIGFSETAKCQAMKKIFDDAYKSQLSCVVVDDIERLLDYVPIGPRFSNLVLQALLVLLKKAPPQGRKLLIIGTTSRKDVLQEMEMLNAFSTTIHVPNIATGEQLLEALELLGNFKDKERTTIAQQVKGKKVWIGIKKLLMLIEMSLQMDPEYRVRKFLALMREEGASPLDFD

Measured: binding result

Sequence of Gnao1_IPI:IPI00115546.4 (P18872 2-354 limits assumed): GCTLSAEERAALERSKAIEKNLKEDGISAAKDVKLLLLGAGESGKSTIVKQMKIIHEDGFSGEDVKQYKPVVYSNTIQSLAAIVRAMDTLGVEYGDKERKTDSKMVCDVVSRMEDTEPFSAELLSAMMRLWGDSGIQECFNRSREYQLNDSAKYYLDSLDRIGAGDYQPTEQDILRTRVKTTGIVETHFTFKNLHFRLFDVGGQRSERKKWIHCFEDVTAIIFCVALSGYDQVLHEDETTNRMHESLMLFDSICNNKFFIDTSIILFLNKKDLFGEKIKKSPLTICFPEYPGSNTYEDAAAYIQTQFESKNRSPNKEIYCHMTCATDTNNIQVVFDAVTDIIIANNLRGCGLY
Sequence of Tpi1_IPI:IPI00467833.6 (P17751 2-249 limits assumed): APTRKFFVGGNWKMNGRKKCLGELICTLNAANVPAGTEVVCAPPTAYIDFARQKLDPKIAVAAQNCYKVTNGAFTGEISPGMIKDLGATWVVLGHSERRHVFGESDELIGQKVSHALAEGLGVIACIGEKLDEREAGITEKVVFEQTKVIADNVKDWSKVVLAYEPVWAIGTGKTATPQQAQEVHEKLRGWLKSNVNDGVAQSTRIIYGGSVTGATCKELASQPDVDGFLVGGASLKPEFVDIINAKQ

B1: GST alone (other)
chain: not shown
notes: Negative control of the pull-downs; also called control GST
no binding: all assays above
